# Experimental data taken from PubChem BioAssay (Tox21).
# Inconclusive means that the source gave no clear call. Such entries were picked first, then a sample of the others. Where a call stands in place of a potency, no number is given. For some assays here: Potencies of inconclusive entries are doubtful fits and often do not repeat. More than one record can exist for a structure, and the calls need not agree. Activity calls are given as the source filed them. Unless noted, the call rests on the fitted dose curve; in most records, active means well fitted curve in the direction sought with a large enough effect in the repeat runs; inconclusive means weak or mixed curves; inactive means no such curve, though single readings can be large; an effect the other way counts as inactive or inconclusive.
# Key:
# [1] = qHTS assay to identify small molecule antagonists of the peroxisome proliferator-activated receptor delta (PPARd) signaling pathway - cell viability counter screen (AID 743213); details: PPARd-bla HEK293H viability, CellTiter-Glo luminescence, 17 h; viability change, negative = cytotoxic: at 62 µM (top of the series) unless noted; further: nearly all actives have a fitted effect of over 50% in size; further: potency means the concentration at half of the fitted maximal effect
# Method in brief: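 PPARd-bla HEK293H cells were treated with compounds plus agonist L165041 (300 nM final) for 17 h at 37 C. Viability was then read in the same wells by CellTiter-Glo luminescence after 30 min at room temperature.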
# [2] = qHTS assay to identify small molecule agonists of H2AX (AID 1224845; active means well fitted activation curve with a large enough effect in the signal ratio in the repeat runs, not every such curve was filed as active; inconclusive means weak or mixed curves; the % refers to the signal ratio; further: potency means the concentration at half of the fitted maximal effect); details: CHO-K1 phospho-H2AX Ser139 HTRF, 3 h; activation (H2AX phosphorylation): at 154 µM (top of the series) unless noted
# Method in brief: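 Wild-type CHO-K1 cells, plated overnight, exposed 3hr at 37C to 15 concentrations (0.76% DMSO final). Lysed, then HTRF anti-pH2AX (S139) cryptate and anti-H2AX-d2 antibodies, 24 hr room temperature; 665/620 nm emission read.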
# [3] = target: Cytochrome P450 2D6 (Homo sapiens) (UniProt P10635); test: Cytochrome P450 Family 2 Subfamily D Member 6 (CYP2D6) small molecule antagonists: luciferase reporter qHTS assay (AID 1671196); further: nearly all actives have a fitted effect of over 50% in size; further: potency means the concentration at half of the fitted maximal effect
# Sequence of UniProt P10635 (P10635 whole entry, looked up): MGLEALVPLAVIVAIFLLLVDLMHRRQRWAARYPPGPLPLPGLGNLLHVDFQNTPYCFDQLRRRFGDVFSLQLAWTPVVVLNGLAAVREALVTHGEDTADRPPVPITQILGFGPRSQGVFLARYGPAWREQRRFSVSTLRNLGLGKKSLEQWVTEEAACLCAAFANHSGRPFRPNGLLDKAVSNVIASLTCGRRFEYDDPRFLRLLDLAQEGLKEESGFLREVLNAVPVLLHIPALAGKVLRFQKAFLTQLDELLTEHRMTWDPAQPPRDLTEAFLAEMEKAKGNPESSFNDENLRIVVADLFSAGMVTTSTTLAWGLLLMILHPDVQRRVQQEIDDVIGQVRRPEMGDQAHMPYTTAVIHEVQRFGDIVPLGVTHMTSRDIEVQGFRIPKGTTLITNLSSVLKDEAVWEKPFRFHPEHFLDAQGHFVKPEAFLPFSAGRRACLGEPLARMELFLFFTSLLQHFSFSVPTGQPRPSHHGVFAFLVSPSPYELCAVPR
# Method in brief: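 P450-Glo format: CYP2D6 converts a proluciferin substrate to luciferin in an NADPH-driven reaction lasting 1 h at room temperature. Light output, proportional to CYP2D6 activity, reflects interference by test chemicals.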
# [4] = qHTS assay to identify small molecule antagonists of the estrogen receptor alpha (ER-alpha) signaling pathway - cell viability counter screen (AID 743074; calls by dose curve;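 further: HEK293 cells carrying ER-alpha-UAS-bla reporter stimulated with 17beta-estradiol; nearly all actives have a fitted effect of over 45% in size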; further: potency means the concentration at half of the fitted maximal effect)
# [5] = Human pregnane X receptor (PXR) small molecule agonists, qHTS cell viability counter screen (AID 1346977); further: nearly all actives have a fitted effect of over 50% in size; further: potency means the concentration at half of the fitted maximal effect
# Method in brief: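 Measures live-cell protease fluorescence (CellTiter-Fluor) in PXR-Luc HepG2 cells treated 24hr with compounds at 37C. Cells had 5hr to attach before pin transfer of DMSO solutions.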
# [6] = qHTS assay for identifying genotoxic compounds that show differential cytotoxicity against isogenic chicken DT40 cell lines with known DNA damage response pathways - Rad54/Ku70 mutant cell line (AID 743015); details: DT40 Rad54/Ku70 mutant viability, CellTiter-Glo, 40 h; activity change, negative = cytotoxicity: at 66.8 µM (top of the series) unless noted; further: nearly all actives have a fitted effect of over 60% in size; further: potency means the concentration at half of the fitted maximal effect
# [7] = target: Estrogen receptor (Homo sapiens) (UniProt P03372); test: qHTS assay to identify small molecule antagonists of the estrogen receptor alpha (ER-alpha) signaling pathway (AID 743069; active means well fitted curve in the direction sought with a large enough effect in the signal ratio in the repeat runs, not every such curve was filed as active; inconclusive means weak or mixed curves, or effect the other way; inactive means no such curve, though single readings can be large or run the other way; the % refers to the signal ratio; further: potency means the concentration at half of the fitted maximal effect); details: HEK293 ER-alpha-UAS-bla, beta-lactamase ratio, antagonist mode; activity, negative = inhibition: at 69.4 µM (top of the series) unless noted
# Sequence of UniProt P03372 (P03372 whole entry, looked up): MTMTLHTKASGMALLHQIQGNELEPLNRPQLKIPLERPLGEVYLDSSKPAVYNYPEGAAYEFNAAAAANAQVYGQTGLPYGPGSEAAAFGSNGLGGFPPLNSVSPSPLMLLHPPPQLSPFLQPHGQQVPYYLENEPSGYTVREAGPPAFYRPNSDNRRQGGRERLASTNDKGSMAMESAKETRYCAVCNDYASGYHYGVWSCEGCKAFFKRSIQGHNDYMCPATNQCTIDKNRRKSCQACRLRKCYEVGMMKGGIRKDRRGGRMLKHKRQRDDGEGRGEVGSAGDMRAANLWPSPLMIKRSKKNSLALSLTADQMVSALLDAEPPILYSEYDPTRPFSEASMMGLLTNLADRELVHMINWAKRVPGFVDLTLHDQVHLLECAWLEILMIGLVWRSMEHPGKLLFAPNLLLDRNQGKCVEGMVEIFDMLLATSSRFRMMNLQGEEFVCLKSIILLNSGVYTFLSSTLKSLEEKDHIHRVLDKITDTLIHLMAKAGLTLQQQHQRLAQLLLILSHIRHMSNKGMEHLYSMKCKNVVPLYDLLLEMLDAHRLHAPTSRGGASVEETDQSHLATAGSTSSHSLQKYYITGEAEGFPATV
# Method in brief: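 HEK293 ER-alpha-UAS-bla GripTite cells, held overnight in 2% charcoal-stripped FBS, 5,000 cells/well, preincubated 4 h, then compound plus 17beta-estradiol for 18 h at 37C. Beta-lactamase read by LiveBLAzer B/G FRET substrate, 2 h at room temperature.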
# [8] = target: Peroxisome proliferator-activated receptor delta (Homo sapiens) (UniProt Q03181); test: qHTS assay to identify small molecule agonists of the peroxisome proliferator-activated receptor delta (PPARd) signaling pathway (AID 743212; calls by dose curve;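 further: HEK293H cells with PPARd UAS beta-lactamase reporter GeneBLAzer system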; further: potency means the concentration at half of the fitted maximal effect); details: HEK293H PPARd-UAS-bla, beta-lactamase FRET ratio, 17 h; activation: at 62.6 µM (top of the series) unless noted
# Sequence of UniProt Q03181 (Q03181 whole entry, looked up): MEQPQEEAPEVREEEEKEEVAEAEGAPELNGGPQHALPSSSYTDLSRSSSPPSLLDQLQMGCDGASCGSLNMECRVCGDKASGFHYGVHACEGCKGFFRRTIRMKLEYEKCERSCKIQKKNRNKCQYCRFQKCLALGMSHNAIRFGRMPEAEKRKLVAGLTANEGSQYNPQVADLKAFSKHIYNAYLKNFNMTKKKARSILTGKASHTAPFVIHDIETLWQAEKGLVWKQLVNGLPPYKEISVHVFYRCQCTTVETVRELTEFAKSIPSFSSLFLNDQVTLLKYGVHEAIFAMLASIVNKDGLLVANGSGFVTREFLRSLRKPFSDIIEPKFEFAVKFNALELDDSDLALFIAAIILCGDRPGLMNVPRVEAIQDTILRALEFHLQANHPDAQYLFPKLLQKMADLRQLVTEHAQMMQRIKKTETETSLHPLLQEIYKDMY
# Method in brief: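 GeneBLAzer UAS-bla HEK293H cells carrying a PPARδ construct were exposed to compounds at 37 °C. Beta-lactamase activity was read by FRET fluorescence after 2 h at room temperature with LiveBLAzer B/G substrate.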
# [9] = target: Estrogen receptor beta (Homo sapiens) (UniProt Q92731); test: qHTS assay to identify small molecule agonists of the estrogen receptor beta (ER-beta) signaling pathway (AID 1259377; active means well fitted activation curve with a large enough effect in the signal ratio in the repeat runs, not every such curve was filed as active; inconclusive means weak or mixed curves, or effect the other way; the % refers to the signal ratio; further: potency means the concentration at half of the fitted maximal effect); details: ER-beta-UAS-bla HEK293T, beta-lactamase FRET ratio, 16 h; activation: at 92.4 µM (top of the series) unless noted
# Sequence of UniProt Q92731 (Q92731 whole entry, looked up): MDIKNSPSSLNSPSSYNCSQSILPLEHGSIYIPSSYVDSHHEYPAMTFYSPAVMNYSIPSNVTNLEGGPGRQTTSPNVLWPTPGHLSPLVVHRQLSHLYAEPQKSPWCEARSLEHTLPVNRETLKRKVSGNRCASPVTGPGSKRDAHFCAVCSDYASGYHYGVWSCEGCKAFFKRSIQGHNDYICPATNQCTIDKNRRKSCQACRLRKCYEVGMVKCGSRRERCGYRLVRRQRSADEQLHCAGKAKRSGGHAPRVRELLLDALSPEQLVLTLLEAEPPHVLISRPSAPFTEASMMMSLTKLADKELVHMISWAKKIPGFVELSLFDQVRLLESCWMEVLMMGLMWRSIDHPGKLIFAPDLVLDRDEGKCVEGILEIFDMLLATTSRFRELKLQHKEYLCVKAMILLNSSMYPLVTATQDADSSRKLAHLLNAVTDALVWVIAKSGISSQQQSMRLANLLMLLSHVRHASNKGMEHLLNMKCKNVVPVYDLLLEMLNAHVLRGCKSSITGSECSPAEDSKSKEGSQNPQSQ
# Method in brief: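 A UAS-controlled beta-lactamase reporter in ER-beta-UAS-bla HEK293T cells reports receptor activation. Compounds act for 16 hr at 37C in 2% charcoal-stripped serum, and a FRET substrate is read by fluorescence after 2 hours.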
# [10] = qHTS assay to identify small molecule antagonists of the estrogen related receptor signaling pathway with the pleiotropic PPARgamma coactivator (PGC) from Tox21 10K library (AID 1224841; call rule not given here; further: actives are mostly falling curves and most rising ones were filed inactive; nearly all actives have a fitted effect of over 50% in size; further: potency means the concentration at half of the fitted maximal effect)
# Method in brief: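 Antagonism in this quantitative HTS is taken from loss of luciferase signal in PGC/ERR cells. Cells (2,000/well) are treated with compounds in DMSO after a 6 h settling period and read by One-Glo luminescence after 18 h.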
# [11] = qHTS RealTime-Glo MT Cell Viability Assay in HEK293 cells - 8 hour (AID 1224887); further: nearly all actives have a fitted effect of over 50% in size; further: potency means the concentration at half of the fitted maximal effect; on activity change, negative = cytotoxicity: top concentration of the series differs between compounds
# Method in brief: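 Nonlytic bioluminescent viability monitoring. HEK293 at 600 cells/well with reagent; 5 h settle; compound transfer by pintool; plates held at 37 C and read at set time points.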
# [12] = qHTS assay to identify small molecule agonists of the estrogen receptor beta (ER-beta) signaling pathway - cell viability counter screen (AID 1259380); further: nearly all actives have a fitted effect of over 30% in size; further: potency means the concentration at half of the fitted maximal effect
# Method in brief: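 Same-well viability counter screen. Cells: ER-beta-UAS-bla HEK293T, plated 6 hr before compound, in 2% charcoal-stripped FBS. Compound exposure 16 hr, 37C; viability by CellTiter-Glo luminescence after 30 min at room temperature.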
# [13] = qHTS assay to identify small molecule antagonists of the progesterone receptor (PR) signaling pathway - cell viability counter screen (AID 1346798); further: nearly all actives have a fitted effect of over 50% in size; further: potency means the concentration at half of the fitted maximal effect;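 on activity change, negative = cytotoxicity: HEK293T PR-UAS-bla cells stimulated with the agonist R5020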
# Method in brief: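 Same-well multiplex: after 16 hr at 37C with compound and R5020 stimulation, HEK293T cells carrying a UAS-bla reporter received LiveBLAzer substrate (2 hr RT), then CellTiter-Glo (30 min RT) for luminescent viability.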
# [14] = qHTS RealTime-Glo MT Cell Viability Assay in HEK293 cells - 32 hour (AID 1224868); further: nearly all actives have a fitted effect of over 50% in size; further: potency means the concentration at half of the fitted maximal effect
# Method in brief: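 HEK293 cells were seeded at 600 cells/well together with NanoLuc luciferase and cell-permeant prosubstrate, preincubated 5 h at 37 C/5% CO2, then given compound in DMSO by pintool. Luminescence from viable-cell prosubstrate reduction was read repeatedly over 40 h.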
# [15] = qHTS assay to identify small molecule antagonists of the sonic hedgehog signaling (Shh) pathway (AID 1259369; calls by dose curve; further: nearly all actives have a fitted effect of over 45% in size; further: potency means the concentration at half of the fitted maximal effect)
# Method in brief: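 Inhibition of Shh signalling is measured as reduced Gli1-response-element firefly luciferase output in an NIH/3T3-derived stable reporter clone stimulated with conditioned medium for 24hr.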
# [16] = target: Vitamin D3 receptor (Homo sapiens) (UniProt P11473); test: qHTS assay to identify small molecule agonists of the vitamin D receptor (VDR) signaling pathway (AID 743222; calls by dose curve); details: HEK293T VDR-UAS-bla, beta-lactamase FRET ratio, 16 h; activation: at 63.5 µM (top of the series) unless noted
# Sequence of UniProt P11473 (P11473 whole entry, looked up): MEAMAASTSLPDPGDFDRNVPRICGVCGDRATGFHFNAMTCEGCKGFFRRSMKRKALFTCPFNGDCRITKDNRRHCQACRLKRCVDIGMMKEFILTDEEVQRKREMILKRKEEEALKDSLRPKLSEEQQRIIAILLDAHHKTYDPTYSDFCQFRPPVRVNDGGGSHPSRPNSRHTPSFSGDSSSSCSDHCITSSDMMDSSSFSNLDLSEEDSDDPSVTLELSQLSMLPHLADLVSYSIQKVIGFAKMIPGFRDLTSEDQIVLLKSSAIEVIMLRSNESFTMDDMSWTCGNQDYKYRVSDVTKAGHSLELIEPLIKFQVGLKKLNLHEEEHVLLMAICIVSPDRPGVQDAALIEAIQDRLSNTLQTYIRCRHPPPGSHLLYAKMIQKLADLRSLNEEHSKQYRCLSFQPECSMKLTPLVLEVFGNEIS
# Method in brief: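 Quantitative HTS agonist-mode screen: compounds in DMSO were pin-transferred onto VDR-bla cells and incubated 16 h at 37C, 5% CO2. Reporter activity was detected with LiveBLAzer B/G FRET substrate after 2 h at room temperature.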
# [17] = qHTS assay to identify small molecule agonists of H2AX - cell viability counter screen (AID 1224847; calls by dose curve; further: nearly all actives have a fitted effect of over 30% in size; further: potency means the concentration at half of the fitted maximal effect; on activity change, negative = cytotoxicity: top concentration of the series differs between compounds)
# Method in brief: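 We seed wild-type CHO-K1 cells overnight, treat them for 3 hr at 37C with compounds in 15-concentration series, and quantify remaining viability by CellTiter-Glo luminescence.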
# Tags describe the fitted curve by direction and shape or compound fluorescence and quenching.
smiles,measurement,setting,value
O=C(Cl)c1c(Cl)cccc1Cl,Potency,[1],inactive
CC(CN=Cc1ccccc1O)N=Cc1ccccc1O (configuration not stated),Potency,[1],inactive
same,Potency,[2],inactive
same,Potency,[3],active: 35.6 µM
COCCCOc1cc(C[C@@H](C[C@H](N)[C@@H](O)C[C@H](C(=O)NCC(C)(C)C(N)=O)C(C)C)C(C)C)ccc1OC,Potency,[4],"inconclusive: 10.7 µM [rising, single point]"
same,Potency,[2],inactive
same,Potency,[3],"inconclusive: 34.7 µM [inhibitor, single point]"
N#Cc1c(F)cccc1F,Potency,[5],"inconclusive: 68.6 µM [rising, single point]"
CCOC(=O)Cc1cccc2ccccc12,Potency,[6],inactive
same,"activity, negative = inhibition",[7],inconclusive: 20.5%
CCC(C=O)CC,Potency,[8],inactive
same,Potency,[1],inactive
same,Potency,[9],inactive
Cc1cnccn1,Potency,[10],"inconclusive: 0.864 µM [falling, single point]"
same,Potency,[11],inactive
O=C(O)c1cccc(C(=O)O)n1,Potency,[10],inactive
same,Potency,[12],inactive
CCC1CCCCC1,Potency,[10],"inconclusive: 7.7 µM [falling, partial curve, poor fit]"
same,Potency,[13],inactive
same,Potency,[3],inactive
CC[N+](CC)(CC)Cc1ccccc1,Potency,[10],"inconclusive: 0.273 µM [falling, single point]"
same,Potency,[14],inactive
C1CCC2=NCCCN2CC1,Potency,[15],"inconclusive: 27.3 µM [inhibitor, single point]"
same,Potency,[12],inactive
CCCCCC1CCCC(=O)O1 (configuration not stated),Potency,[15],inactive
CCC(CC)CO,Potency,[7],inactive
same,Potency,[5],inactive
CCCCCCOC(=O)CCCCC(=O)OCCCCCC,Potency,[1],inactive
same,Potency,[12],"inconclusive: 27.3 µM [rising, single point]"
COc1cc(Cl)c(OC)cc1N,Potency,[6],"inconclusive: 48.6 µM [cytotoxic, partial curve]"
same,Potency,[4],"inconclusive: 6.16 µM [rising, full curve]"
same,Potency,[2],"inconclusive: 101 µM [falling, partial curve]"
same,Potency,[11],"inconclusive: 43.6 µM [cytotoxic, partial curve]"
O=C(Cl)c1ccccc1[N+](=O)[O-],Potency,[9],inactive
same,Potency,[5],inactive
same,Potency,[3],"inconclusive: 64.8 µM [inhibitor, partial curve, poor fit]"
CC(=O)S[C@H](C(=O)N[C@H]1Cc2ccccc2[C@H]2CCC[C@@H](C(=O)O)N2C1=O)C(C)C,Potency,[10],inactive
same,Potency,[2],"inconclusive: 56.6 µM [rising, partial curve]"
same,Potency,[15],inactive
same,Potency,[12],"inconclusive: 27.3 µM [rising, single point]"
CCCOC(=O)CCCCC(=O)OCCC,Potency,[2],inactive
same,Potency,[9],inactive
same,Potency,[3],inactive
CCc1ccc(C=O)cc1,Potency,[14],inactive
same,Potency,[13],"inconclusive: 0.0433 µM [cytotoxic, full curve, poor fit]"
CCCCCCCCC(=O)O,Potency,[4],inactive
same,activation,[8],inconclusive: -2.29%
same,Potency,[9],"inconclusive: 47 µM [activator, partial curve]"
same,Potency,[3],active: 34.4 µM and inactive
Cn1c(=O)c2c(ncn2CC(O)CO)n(C)c1=O (configuration not stated),Potency,[1],"inconclusive: 2.98 µM [cytotoxic, full curve, poor fit]"
same,Potency,[10],inactive
same,Potency,[12],"inconclusive: 33.5 µM [rising, single point]"
same,Potency,[3],inactive
C=Cc1ccc(C=C)cc1,Potency,[4],"inconclusive: 53.5 µM [rising, single point]"
same,Potency,[16],inactive
same,Potency,[10],"inconclusive: 59.5 µM [falling, single point]"
same,Potency,[17],inactive
same,Potency,[14],inactive
same,Potency,[11],inactive
OCCN1CCOCC1,"activity, negative = inhibition",[7],inconclusive: 40.8%
same,Potency,[4],"inconclusive: 1.74 µM [rising, full curve, poor fit]"
same,Potency,[2],inactive
same,activation,[9],inconclusive: 13.5%
CC(C)(Oc1ccc(Cl)cc1)C(=O)OCCCOC(=O)C(C)(C)Oc1ccc(Cl)cc1,activation,[8],inconclusive: 1.62%
same,Potency,[17],inactive
same,Potency,[11],"inconclusive: 19 µM [cytotoxic, partial curve, poor fit]"
same,Potency,[15],inactive
C/C(=C(\CCO)SS/C(CCO)=C(\C)N(C=O)Cc1cnc(C)nc1N)N(C=O)Cc1cnc(C)nc1N,Potency,[8],inactive
same,Potency,[10],inactive
same,Potency,[17],"inconclusive: 0.196 µM [cytotoxic, single point]"
NC(=S)N/N=C/c1cccnc1,Potency,[4],inactive
CCCCCN(CCCCC)C(=O)C(CCC(=O)O)NC(=O)c1ccc(Cl)c(Cl)c1 (configuration not stated),"activity, negative = inhibition",[7],inconclusive: -15.6% [phenotype inactive]
same,Potency,[8],"inconclusive: 37.6 µM [rising, partial curve, poor fit]"
same,Potency,[13],"inconclusive: 0.0298 µM [rising, single point]"
same,Potency,[3],"inconclusive: 30.9 µM [inhibitor, partial curve]"
Cc1cc(C)c(C)cc1C,Potency,[7],"inconclusive: 24.7 µM [rising, full curve, poor fit]"
same,Potency,[8],inactive
C[C@@H]1CC[C@@]2(OC1)O[C@H]1C[C@H]3[C@@H]4CC[C@H]5C[C@@H](O)CC[C@]5(C)[C@H]4CC(=O)[C@]3(C)[C@H]1[C@@H]2C,"activity change, negative = inhibition",[15],inactive: 0.87% [at 8.39 µM]
same,Potency,[3],"inconclusive: 4.36 µM [inhibitor, single point]"
CCCCOC(=O)[C@@H](C)Oc1ccc(Oc2ccc(C(F)(F)F)cn2)cc1,Potency,[6],inactive
same,"activity, negative = inhibition",[7],inconclusive: -17.8% [at 79.1 µM]
same,Potency,[1],inactive
same,Potency,[16],inactive
same,Potency,[17],"inconclusive: 90.3 µM [cytotoxic, partial curve, poor fit]"
same,Potency,[14],"inconclusive: 49.3 µM [cytotoxic, partial curve]"
CC(=O)N[C@@H](CC(C)C)C(=O)O,Potency,[8],inactive
same,Potency,[1],"inconclusive: 0.119 µM [cytotoxic, single point]"
same,Potency,[16],inactive
same,Potency,[5],"inconclusive: 1.06 µM [cytotoxic, single point]"
C=CCOC(=O)CCCCCCCC,Potency,[6],inactive
same,Potency,[1],inactive
same,activation,[9],inconclusive: 8.87%
